Among all 45,000 compounds or so, about 65 (0.1%) were called active. The call rests on the fitted dose curve; in most records, active means well fitted activation curve with a large enough effect; inconclusive means small, poorly fitted or top-dose-only effect; inactive means no such curve, though single readings can be large or run the other way. The list shows a part of the results.
target: Galactocerebrosidase (Homo sapiens) (UniProt P54803); assay: A Novel Cell-Based Assay to Identify Small Molecules for B -Galactocerebrosidase; settings: 145M-Twi-hGALC-G270D cells (Twitcher mouse brain line with human GALC G270D), HMU-beta-Gal fluorescence, 48 h; series mostly up to 57.5 µM; activation: at the top concentration; further: 0% is about no effect; nearly all actives have a fitted effect of over 65% in size
Sequence of UniProt P54803 (P54803 whole entry, looked up): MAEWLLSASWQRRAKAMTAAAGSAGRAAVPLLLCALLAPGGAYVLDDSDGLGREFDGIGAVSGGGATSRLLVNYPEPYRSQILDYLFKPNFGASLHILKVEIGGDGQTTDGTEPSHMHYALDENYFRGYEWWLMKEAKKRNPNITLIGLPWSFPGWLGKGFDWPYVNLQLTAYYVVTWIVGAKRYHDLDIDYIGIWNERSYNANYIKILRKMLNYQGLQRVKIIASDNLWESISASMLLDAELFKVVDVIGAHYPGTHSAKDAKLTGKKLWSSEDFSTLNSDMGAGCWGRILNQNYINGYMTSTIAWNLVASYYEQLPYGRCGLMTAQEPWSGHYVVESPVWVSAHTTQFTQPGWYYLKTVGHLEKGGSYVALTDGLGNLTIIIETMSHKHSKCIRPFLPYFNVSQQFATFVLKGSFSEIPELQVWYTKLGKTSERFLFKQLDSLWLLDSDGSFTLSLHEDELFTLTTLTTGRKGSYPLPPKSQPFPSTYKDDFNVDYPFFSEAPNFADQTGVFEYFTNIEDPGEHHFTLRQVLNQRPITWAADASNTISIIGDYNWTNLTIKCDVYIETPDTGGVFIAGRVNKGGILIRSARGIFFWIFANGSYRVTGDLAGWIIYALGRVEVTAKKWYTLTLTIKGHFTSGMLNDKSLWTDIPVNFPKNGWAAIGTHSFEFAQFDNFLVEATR
Outline: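 Live 145M-Twi cells (Twitcher mouse brain-derived, GALC-null) stably expressing human GALC-G270D, with a wild-type GALC line, were compound-treated. Residual GALC activity was then read as fluorescence from 0.1 mM final HMU-β-gal at pH 5.2; higher signal means activation.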

activation, inactive:
CCOc1cc2[nH]c(=O)n(CCCC(=O)N3CCN(c4ccc(OC)cc4)CC3)c(=O)c2cc1OCC -11.4%
CCn1c2ccccc2c2cc(NC(=O)COc3cccc(C)c3)ccc21 -9.3%
CCOC(=O)c1c(C)[nH]c(C)c1S(=O)(=O)N1CCC(C(=O)Nc2ccc(C)cn2)CC1 -7.8%
CCOc1ccc(CCNC(=O)Cn2ncc3c(=O)oc4ccc(C)cc4c32)cc1 -7.96%
CNC(=O)C1CCC(Cn2c(=O)c3sccc3n(CC(=O)Nc3ccc(C)c(F)c3)c2=O)CC1 (configuration not stated) -13.4%
Cc1ccc(F)c(NC(=O)Nc2ccc3snnc3c2)c1 -12.8%
COc1ccc(OC)c(NS(=O)(=O)c2ccc3[nH]c4c(c3c2)CCCCC4)c1 -36.3%
CCCCN1CC(c2nc3ccccc3n2CCCCOc2ccc(C)c(C)c2)CC1=O (configuration not stated) -22.1%
O=C(NCCN1CCN(c2cccc(Cl)c2)CC1)C1COc2ccccc2C1 (configuration not stated) -16.4%
Cc1cccc(CNC(=O)Cn2ccc3cc(S(=O)(=O)N4CCCC4)ccc32)c1 -6.61%
CC(=O)N1CCCc2cc(S(=O)(=O)N(C)CC(=O)Nc3cccc(C)c3C)ccc21 -18.7%
CCOc1ccc(CCNC(=O)c2cn(CC)c3ccc(S(=O)(=O)N4CCCCCC4)cc3c2=O)cc1OCC -8.76%
O=C1c2[nH]nc(-c3ccccc3O)c2C(c2cccc(Cl)c2)N1Cc1cccnc1 (configuration not stated) -9.79%
COc1cc(C2C(C(=O)Nc3ccc(C)cc3C)=C(C)Nc3nc4ccccc4n32)cc(OC)c1OC (configuration not stated) -6.98%
Cc1cccc(NC(=O)CS(=O)(=O)c2nc(-c3ccccc3)cn2-c2cccc(Cl)c2)c1C -12.8%
Cc1ccc(S(=O)(=O)N(CCc2ccccc2)CC(=O)Nc2cc(C)ccc2C)cc1 -15.9%
CCOC(=O)c1cc(-c2ccc(C)cc2)n(CCC(=O)Nc2ccc(C(C)C)cc2)c1C -6.43%
CN(C)S(=O)(=O)c1ccc(C(=O)NC2CC(=O)N(c3ccc4c(c3)OCCO4)C2)cc1 (configuration not stated) -14.3%
COc1cccc(N2CCN(C(=O)C3CCN(S(=O)(=O)c4c(C)noc4C)CC3)CC2)c1 -14.7%
COc1cccc(-c2nc(CS(=O)(=O)CC(=O)Nc3c(C)cc(C)cc3C)c(C)o2)c1 -22.4%
O=C(NC1CC(=O)N(c2ccc(Cl)cc2)C1)c1ccc2c(c1)OCO2 (configuration not stated) 0.469%
CCOc1ccccc1NC(=O)c1nc2nc(C)cc(C(F)F)n2n1 -12.4%
Cc1cccc(NC(=O)Cn2nnc(C(=O)Nc3ccccc3Br)c2N)c1C -4.89%
Cn1cc(C(=O)NCc2ccccc2)c(=O)c2cc(S(=O)(=O)N3CCOCC3)ccc21 -6.62%
Cc1cc(NC(=O)N(C)CCc2c(C)nn(C)c2C)ccc1Br -2.83%
Cc1ccc2c(=O)cc(C(=O)N(Cc3ccc(N(C)C)cc3)C3CCS(=O)(=O)C3)oc2c1 (configuration not stated) -2.94%
CCCN1CCN(CCCNC(=O)Cn2nc(CC)n3c(cc4occc43)c2=O)CC1 12.7%
N=c1n(CCN2CCCCC2)c2ccccc2n1CC(O)COc1ccc(Cl)cc1Cl (configuration not stated) -18.2%
CSc1ccc(CCNC(=O)CN2C(=O)c3cccnc3Oc3ccc(C)cc32)cc1 -9.33%
Cc1cc(F)ccc1NS(=O)(=O)c1c(C)nc2scc(C)n2c1=O -8.49%
CCc1cccc(C)c1NC(=O)CSc1nc2ccccc2nc1N1CCOCC1 -7.46%
COc1ccc(Cn2c(SCc3ccc(C(=O)NCc4cccs4)cc3)nc3cccnc32)cc1 -11.2%
CC1(C)O[C@H]2[C@@H](O1)[C@@H](C(=O)Nc1ccc(F)c(F)c1)O[C@@H]1OC(C)(C)O[C@@H]12 -19.5%
COc1ccc(CCNC(=O)c2ccc3c(c2)N(Cc2cccc(Cl)c2)C(=O)CS3)cc1OC -0.288%
CCOc1ccc(C(c2c(O)cc(C)n(CCOC)c2=O)N2CCC(C)CC2)cc1 (configuration not stated) 8.85%
O=C(NCc1ccc(Cl)cc1)c1cnc2sc(N3CCCC3)nn2c1=O -6.44%
O=C(CC1N=C2c3ccccc3N=C(SCc3ccccc3F)N2C1=O)NCc1ccc2c(c1)OCO2 (configuration not stated) -8.77%
COc1ccc(Cl)cc1NC(=O)CN(c1cccc(C)c1C)S(=O)(=O)c1ccccc1 2.44%
COc1ccc(C2c3c(n(C)c4ccccc34)C(=O)N2CC(=O)Nc2ccccc2F)cc1 (configuration not stated) -8.89%
COc1cc(C)ccc1OCCn1c(-c2ccc(Cl)cc2)nc2ccccc2c1=O -27.3%
COc1ccc2c(c1)sc1ncc(C(=O)NCc3cccc(Cl)c3)c(=O)n12 -21.2%
COc1ccc(-n2c3c(cc(-c4nc(-c5ccc(Cl)cc5)cs4)c2=O)C(=O)CC(C)(C)C3)cc1 -10.2%
O=C1c2[nH]nc(-c3ccc(Br)cc3)c2C(c2cccc(O)c2)N1c1ccc(Cl)cc1 (configuration not stated) -7.45%
COc1ccc(NC(=O)c2sc3nc4n(c(=O)c3c2C)CCC4)cc1Cl -19.4%
Cc1ccc2scc(N3CCN(c4ccc(F)cc4)CC3)c(=O)c2c1 -5.99%
CCOc1ccc(NC(=O)Cn2c(=O)oc3cc(S(=O)(=O)N4CCCCCC4)ccc32)cc1 -3.64%
Cc1ccc(CCNC(=O)c2ccc(CSCc3ccccc3Cl)o2)cc1 -14.3%
Cc1ccc(N(C)S(=O)(=O)c2nnc(NC(=O)C3CCCCC3)s2)cc1 -20.1%
CCc1ccc(CNC(=O)c2cc(-c3ccc(Cl)s3)nc3ccccc23)cc1 -4.98%
O=C(Cc1ccc(NC(=O)N2CCSc3ncccc32)cc1)NCCc1ccccc1 -9.03%
CCNc1ccc(-c2nc(-c3ccco3)no2)cc1[N+](=O)[O-] -2.75%
CN(C)S(=O)(=O)n1cc(/C=C(\NC(=O)c2ccccc2)C(=O)NCCCn2ccnc2)c2ccccc21 9.44%
CCOc1ccc(CNC(=O)c2ccc3c(c2)c(C)c(C)n3Cc2ccc(Cl)cc2)cc1 -8.33%
O=C(NCCOCCn1c(=O)oc2ccccc21)Nc1ccc(Cl)cc1 -4.83%
Cc1ccccc1NC(=O)c1c(NC(=O)Cc2ccccc2)sc2c1CCC2 -7.82%
CCOC(=O)N1CCc2c(sc3c2c(=O)n(-c2ccc(CC)cc2)c(=O)n3CC(=O)Nc2ccc(C)cc2)C1 -9.85%
Cc1ccc2oc(=O)n(CCCOc3ccc(Cl)cc3)c2c1 -8.55%
Cc1cc(C)c(NC(=O)c2cc(S(=O)(=O)N3CCN(c4ccccc4F)CC3)ccc2F)c(C)c1 -28%
COc1ccc(N2CC(NC(=O)CCc3ccccc3)CC2=O)cc1OC (configuration not stated) -12%
COc1cc(OC)c(Nc2nc3ccccc3nc2-n2nc(C)cc2C)cc1Cl -1.54%
O=C(Cn1c(=O)n(CC2CCCO2)c(=O)c2ccccc21)Nc1cccc(Cl)c1 (configuration not stated) -2.3%
COC(=O)c1scc(-c2ccc(C)cc2)c1S(=O)(=O)N1CCN(c2ccc(OC)cc2)CC1 -16.1%
CCOC(=O)c1ccccc1NC(=O)N1CCC(N2CCN(Cc3ccccc3)C(=O)C2=O)CC1 -14.1%
Cc1ccc(CCn2c3c(c4cc(Cl)ccc42)CN(C)CC3)cn1 -7.21%
Cc1ccc(N)cc1O -17.9% [at 114 µM]
CCS(=O)(=O)N1CCc2cc(C(=O)NCc3ccccc3)ccc21 -6.35%
Cc1ccc(-c2nc3nc(C)cc(Nc4ccccc4O)n3n2)cc1 -13.1%
CCOc1ccc(OCC)c(NC(=O)CCC(=O)N2CCOc3ccccc32)c1 -15.7%
COCCCNc1nc2c(S(=O)(=O)c3ccc(C)c(C)c3)nnn2c2ccc(Cl)cc12 2.19%
Cc1ccc(NC(=O)CN2C(=O)CCn3nc(-c4cccn4C)cc32)cc1 -12.2%
Cc1ccc2oc(-c3cc(NC(=O)c4ccco4)ccc3Cl)nc2c1 9.89%
CSc1ncc(C(=O)Nc2ccc(F)cc2F)c(-c2ccccc2)n1 2.18%
COc1cc(OC)c(NS(=O)(=O)c2cc(-c3cnc(C)o3)ccc2OC)cc1Cl -7.22%
COc1ccc(-n2nc(C(=O)N3CCN(c4cccc(C)c4C)CC3)c3c4ccccc4n(C)c3c2=O)cc1 -19.1%
O=C(CSCc1nc2cccnc2n1C1CCCCC1)NCc1cccc(Cl)c1 -2.65%
CNC(=O)COc1ccc(NC(=O)CCn2nc(-c3ccc(C)cc3)c3ccccc3c2=O)cc1 -3.39%
CCC(C)OC(=O)/C(C#N)=C\c1ccc(-c2ccccc2Cl)o1 (configuration not stated) -23.1%
O=C(Nc1nc2nc(-c3ccccc3)cc(=O)n2[nH]1)c1ccc(Cl)cc1 -30.1%
Cc1ccc(CNC(=O)c2nn(C)c3c2CS(=O)(=O)c2ccccc2-3)cc1 -14.8%
CCC(=O)N1c2ccccc2CC1C(=O)NCCc1ccc(C)cc1 (configuration not stated) -9.27%
CCN(CC)CCNC(=O)c1nn(C)c2c1CS(=O)(=O)c1ccccc1-2 -9.84%
CCOC(=O)c1ccc(N2C(=O)c3n[nH]c(-c4ccco4)c3C2c2ccc(O)c(OC)c2)cc1 (configuration not stated) -20.5%
Cc1cn(C)c(CC(=O)NCc2ccccc2Cl)c1C(=O)O -3.42%
CSc1ccc(CNC(=O)CCn2c(=O)c3cccn3c3ccc(F)cc32)cc1 -0.487%
Cc1ccccc1C(=O)Nc1ccc2c(c1)CCCN2C(=O)c1cccs1 -5.45%
Cc1ccc(C(=O)Nc2onc3c2CCCC3)cc1 -14%
O=c1c2ccccc2n(Cc2ccccc2F)c(=O)n1-c1cccc(F)c1 -13%
COc1ccccc1CNC(=O)c1cnc2sc(N3CCCCCC3)nn2c1=O -6.22%
O=C(CSc1nnc2ccc3ccccc3n12)c1ccc(F)cc1 -13.4%
Cc1cccc(NC(=O)c2ccc(-c3nc(CSc4ccccc4)c(C)o3)cc2)c1C -16.9%
Cc1nc2sc(C(N)=O)c(N)c2c(-c2ccc(Br)cc2)c1C(=O)Nc1ccc(Cl)cc1 -19.8%
COc1ccc(C(=O)Nc2ccc(-c3nc4ccccc4s3)cc2C)cc1Cl -7.84%
COCCNC(=O)CCN1C(=O)c2cccnc2Oc2ccc(C)cc21 -6.64%
COc1ccc(C(=O)N2CCC(c3nc(-c4ccc(S(=O)(=O)N5CCCC5)cc4)no3)CC2)cc1 -14.4%
COC(=O)c1cc2occc2n1Cc1cccc(C)c1 -19.7%
NC(=O)Cn1c(=O)n(CCCCCC(=O)NCc2ccccc2)c(=O)c2sccc21 -8.24%
Cc1ccc(-n2nc(C(=O)Nc3ccc(C)c(F)c3)c3c4ccccc4n(C)c3c2=O)cc1 -8.24%

From PubChem BioAssay AID1159614 (National Center for Advancing Translational Sciences (NCATS), 2016)
